# Reference: the supplement of paper PMC8728848
# This is one part of the list.
# Key:
# Assay in all cases: glycan array binding signal (z-score within array); higher = stronger binding
# Details in all cases: glycan notation: IUPAC condensed, linker removed
# [1] = target: Fuc(a1-2)[Gal(a1-3)]Gal(b1-4)GlcNAc(b1-2)Man(a1-3)[Fuc(a1-2)[Gal(a1-3)]Gal(b1-4)GlcNAc(b1-2)Man(a1-6)]Man(b1-4)GlcNAc(b1-4)[Fuc(a1-6)]GlcNAc
# In short: (§1)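 Columns mapping to the same glycan were averaged after glycan names were converted to IUPAC-condensed notation. The data come from 3228 arrays in the Consortium for Functional Glycomics database, limited to those with an available protein sequence. Binding is reported as a within-array Z-score averaged across arrays of one protein sequence and across linkers.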
# [2] = target: Fuc(a1-2)[Gal(a1-3)]Gal(b1-4)GlcNAc(b1-3)GalNAc
# In short: as §1
# [3] = target: Fuc(a1-2)[Gal(a1-3)]Gal(b1-4)GlcNAc(b1-3)[Fuc(a1-2)[Gal(a1-3)]Gal(b1-4)GlcNAc(b1-6)]GalNAc
# In short: as §1
# [4] = target: Fuc(a1-2)[Gal(a1-3)]Gal(b1-4)GlcNAc(b1-6)GalNAc
# In short: as §1
# [5] = target: Fuc(a1-2)[Gal(a1-3)]Gal(b1-4)[Fuc(a1-3)]Glc
# In short: as §1
# [6] = target: Fuc(a1-2)[Gal(a1-3)]Gal(b1-4)[Fuc(a1-3)]GlcNAc
# In short: as §1
# [7] = target: Fuc(a1-2)[Gal(a1-3)]Gal(b1-4)[Fuc(a1-3)]GlcNAc(b1-3)GalNAc
# In short: as §1
# [8] = target: Fuc(a1-2)[Gal(a1-4)]Gal(b1-4)GlcNAc
# In short: as §1
# [9] = target: Fuc(a1-2)[GalNAc(a1-3)]Gal
# In short: as §1
# [10] = target: Fuc(a1-2)[GalNAc(a1-3)]Gal(b1-3)GalNAc(a1-3)[Fuc(a1-2)]Gal(b1-4)GlcNAc
# In short: as §1
# [11] = target: Fuc(a1-2)[GalNAc(a1-3)]Gal(b1-3)GalNAc(b1-3)Gal(a1-4)Gal(b1-4)Glc
# In short: as §1
# [12] = target: Fuc(a1-2)[GalNAc(a1-3)]Gal(b1-3)GlcNAc
# In short: as §1
# [13] = target: Fuc(a1-2)[GalNAc(a1-3)]Gal(b1-3)GlcNAc(b1-2)Man(a1-3)[Fuc(a1-2)[GalNAc(a1-3)]Gal(b1-3)GlcNAc(b1-2)Man(a1-6)]Man(b1-4)GlcNAc(b1-4)GlcNAc
# In short: as §1
# [14] = target: Fuc(a1-2)[GalNAc(a1-3)]Gal(b1-3)GlcNAc(b1-2)Man(a1-3)[Fuc(a1-2)[GalNAc(a1-3)]Gal(b1-3)GlcNAc(b1-2)Man(a1-6)]Man(b1-4)GlcNAc(b1-4)[Fuc(a1-6)]GlcNAc
# In short: as §1
# [15] = target: Fuc(a1-2)[GalNAc(a1-3)]Gal(b1-3)GlcNAc(b1-3)GalNAc
# In short: as §1
# [16] = target: Fuc(a1-2)[GalNAc(a1-3)]Gal(b1-3)GlcNAc(b1-6)GalNAc
# In short: as §1
# [17] = target: Fuc(a1-2)[GalNAc(a1-3)]Gal(b1-4)Glc
# In short: as §1
# [18] = target: Fuc(a1-2)[GalNAc(a1-3)]Gal(b1-4)GlcNAc
# In short: as §1
# [19] = target: Fuc(a1-2)[GalNAc(a1-3)]Gal(b1-4)GlcNAc(b1-2)Man
# In short: as §1
# [20] = target: Fuc(a1-2)[GalNAc(a1-3)]Gal(b1-4)GlcNAc(b1-2)Man(a1-3)[Fuc(a1-2)[GalNAc(a1-3)]Gal(b1-4)GlcNAc(b1-2)Man(a1-6)]Man(b1-4)GlcNAc(b1-4)GlcNAc
# In short: as §1
# [21] = target: Fuc(a1-2)[GalNAc(a1-3)]Gal(b1-4)GlcNAc(b1-2)Man(a1-3)[Fuc(a1-2)[GalNAc(a1-3)]Gal(b1-4)GlcNAc(b1-2)Man(a1-6)]Man(b1-4)GlcNAc(b1-4)[Fuc(a1-6)]GlcNAc
# In short: as §1
# [22] = target: Fuc(a1-2)[GalNAc(a1-3)]Gal(b1-4)GlcNAc(b1-3)Gal(b1-4)GlcNAc
# In short: as §1
# [23] = target: Fuc(a1-2)[GalNAc(a1-3)]Gal(b1-4)GlcNAc(b1-3)Gal(b1-4)GlcNAc(b1-3)Gal(b1-4)GlcNAc
# In short: as §1
# [24] = target: Fuc(a1-2)[GalNAc(a1-3)]Gal(b1-4)GlcNAc(b1-3)GalNAc
# In short: as §1
# [25] = target: Fuc(a1-2)[GalNAc(a1-3)]Gal(b1-4)GlcNAc(b1-3)[Fuc(a1-2)[GalNAc(a1-3)]Gal(b1-4)GlcNAc(b1-6)]GalNAc
# In short: as §1
# [26] = target: Fuc(a1-2)[GalNAc(a1-3)]Gal(b1-4)GlcNAc(b1-6)GalNAc
# In short: as §1
# [27] = target: Fuc(a1-2)[GalNAc(a1-3)]Gal(b1-4)[Fuc(a1-3)]GlcNAc
# In short: as §1
# [28] = target: Fuc(a1-2)[GalNAc(a1-3)]Gal(b1-4)[Fuc(a1-3)]GlcNAc(b1-3)GalNAc
# In short: as §1
# [29] = target: Fuc(a1-2)[GalNAc(a1-4)]Gal(b1-4)GlcNAc
# In short: as §1
# [30] = target: Fuc(a1-2)[GalNAc(b1-3)]Gal
# In short: as §1
binder,measurement,setting,value
CBM40 CPF071 (Clostridium perfringens) (protein) MAHHHHHHVGTGSNDDDDKSPDPMLSSLGEYKDINLESSNASNITYDLEKYKNLDEGTIVVRFNSKDSKIQSLLGISNSKTKNGYFNFYVTNSRVGFELRNQKNEGNTQNGTENLVHMYKDVALNDGDNTVALKIEKNKGYKLFLNGKMIKEVKDTNTKFLNNIENLDSAFIGKTNRYGQSNEYNFKGNIGFMNIYNEPLGDDYLLSKTGETK,glycan array binding signal (z-score),[1],-0.137
same,glycan array binding signal (z-score),[2],-0.107
same,glycan array binding signal (z-score),[3],0.056
same,glycan array binding signal (z-score),[4],-0.209
same,glycan array binding signal (z-score),[5],-0.299
same,glycan array binding signal (z-score),[6],-0.541
same,glycan array binding signal (z-score),[7],-0.196
same,glycan array binding signal (z-score),[8],-0.244
same,glycan array binding signal (z-score),[9],-0.348
same,glycan array binding signal (z-score),[10],-0.262
same,glycan array binding signal (z-score),[11],0.084
same,glycan array binding signal (z-score),[12],-0.569
same,glycan array binding signal (z-score),[13],-0.257
same,glycan array binding signal (z-score),[14],-0.332
same,glycan array binding signal (z-score),[15],-0.196
same,glycan array binding signal (z-score),[16],0.171
same,glycan array binding signal (z-score),[17],0.288
same,glycan array binding signal (z-score),[18],-0.116
same,glycan array binding signal (z-score),[19],-0.323
same,glycan array binding signal (z-score),[20],-0.216
same,glycan array binding signal (z-score),[21],-0.378
same,glycan array binding signal (z-score),[22],-0.103
same,glycan array binding signal (z-score),[23],-0.283
same,glycan array binding signal (z-score),[24],-0.63
same,glycan array binding signal (z-score),[25],-0.374
same,glycan array binding signal (z-score),[26],-0.391
same,glycan array binding signal (z-score),[27],0.073
same,glycan array binding signal (z-score),[28],0.134
same,glycan array binding signal (z-score),[29],-0.244
same,glycan array binding signal (z-score),[30],0.142
